Data as given in PMC9633696.

Molecular target: LRP1 on primary human macrophages (human (endogenous in primary human macrophages)) (UniProt Q07954)
Chain of UniProt Q07954 (Q07954 20-4544): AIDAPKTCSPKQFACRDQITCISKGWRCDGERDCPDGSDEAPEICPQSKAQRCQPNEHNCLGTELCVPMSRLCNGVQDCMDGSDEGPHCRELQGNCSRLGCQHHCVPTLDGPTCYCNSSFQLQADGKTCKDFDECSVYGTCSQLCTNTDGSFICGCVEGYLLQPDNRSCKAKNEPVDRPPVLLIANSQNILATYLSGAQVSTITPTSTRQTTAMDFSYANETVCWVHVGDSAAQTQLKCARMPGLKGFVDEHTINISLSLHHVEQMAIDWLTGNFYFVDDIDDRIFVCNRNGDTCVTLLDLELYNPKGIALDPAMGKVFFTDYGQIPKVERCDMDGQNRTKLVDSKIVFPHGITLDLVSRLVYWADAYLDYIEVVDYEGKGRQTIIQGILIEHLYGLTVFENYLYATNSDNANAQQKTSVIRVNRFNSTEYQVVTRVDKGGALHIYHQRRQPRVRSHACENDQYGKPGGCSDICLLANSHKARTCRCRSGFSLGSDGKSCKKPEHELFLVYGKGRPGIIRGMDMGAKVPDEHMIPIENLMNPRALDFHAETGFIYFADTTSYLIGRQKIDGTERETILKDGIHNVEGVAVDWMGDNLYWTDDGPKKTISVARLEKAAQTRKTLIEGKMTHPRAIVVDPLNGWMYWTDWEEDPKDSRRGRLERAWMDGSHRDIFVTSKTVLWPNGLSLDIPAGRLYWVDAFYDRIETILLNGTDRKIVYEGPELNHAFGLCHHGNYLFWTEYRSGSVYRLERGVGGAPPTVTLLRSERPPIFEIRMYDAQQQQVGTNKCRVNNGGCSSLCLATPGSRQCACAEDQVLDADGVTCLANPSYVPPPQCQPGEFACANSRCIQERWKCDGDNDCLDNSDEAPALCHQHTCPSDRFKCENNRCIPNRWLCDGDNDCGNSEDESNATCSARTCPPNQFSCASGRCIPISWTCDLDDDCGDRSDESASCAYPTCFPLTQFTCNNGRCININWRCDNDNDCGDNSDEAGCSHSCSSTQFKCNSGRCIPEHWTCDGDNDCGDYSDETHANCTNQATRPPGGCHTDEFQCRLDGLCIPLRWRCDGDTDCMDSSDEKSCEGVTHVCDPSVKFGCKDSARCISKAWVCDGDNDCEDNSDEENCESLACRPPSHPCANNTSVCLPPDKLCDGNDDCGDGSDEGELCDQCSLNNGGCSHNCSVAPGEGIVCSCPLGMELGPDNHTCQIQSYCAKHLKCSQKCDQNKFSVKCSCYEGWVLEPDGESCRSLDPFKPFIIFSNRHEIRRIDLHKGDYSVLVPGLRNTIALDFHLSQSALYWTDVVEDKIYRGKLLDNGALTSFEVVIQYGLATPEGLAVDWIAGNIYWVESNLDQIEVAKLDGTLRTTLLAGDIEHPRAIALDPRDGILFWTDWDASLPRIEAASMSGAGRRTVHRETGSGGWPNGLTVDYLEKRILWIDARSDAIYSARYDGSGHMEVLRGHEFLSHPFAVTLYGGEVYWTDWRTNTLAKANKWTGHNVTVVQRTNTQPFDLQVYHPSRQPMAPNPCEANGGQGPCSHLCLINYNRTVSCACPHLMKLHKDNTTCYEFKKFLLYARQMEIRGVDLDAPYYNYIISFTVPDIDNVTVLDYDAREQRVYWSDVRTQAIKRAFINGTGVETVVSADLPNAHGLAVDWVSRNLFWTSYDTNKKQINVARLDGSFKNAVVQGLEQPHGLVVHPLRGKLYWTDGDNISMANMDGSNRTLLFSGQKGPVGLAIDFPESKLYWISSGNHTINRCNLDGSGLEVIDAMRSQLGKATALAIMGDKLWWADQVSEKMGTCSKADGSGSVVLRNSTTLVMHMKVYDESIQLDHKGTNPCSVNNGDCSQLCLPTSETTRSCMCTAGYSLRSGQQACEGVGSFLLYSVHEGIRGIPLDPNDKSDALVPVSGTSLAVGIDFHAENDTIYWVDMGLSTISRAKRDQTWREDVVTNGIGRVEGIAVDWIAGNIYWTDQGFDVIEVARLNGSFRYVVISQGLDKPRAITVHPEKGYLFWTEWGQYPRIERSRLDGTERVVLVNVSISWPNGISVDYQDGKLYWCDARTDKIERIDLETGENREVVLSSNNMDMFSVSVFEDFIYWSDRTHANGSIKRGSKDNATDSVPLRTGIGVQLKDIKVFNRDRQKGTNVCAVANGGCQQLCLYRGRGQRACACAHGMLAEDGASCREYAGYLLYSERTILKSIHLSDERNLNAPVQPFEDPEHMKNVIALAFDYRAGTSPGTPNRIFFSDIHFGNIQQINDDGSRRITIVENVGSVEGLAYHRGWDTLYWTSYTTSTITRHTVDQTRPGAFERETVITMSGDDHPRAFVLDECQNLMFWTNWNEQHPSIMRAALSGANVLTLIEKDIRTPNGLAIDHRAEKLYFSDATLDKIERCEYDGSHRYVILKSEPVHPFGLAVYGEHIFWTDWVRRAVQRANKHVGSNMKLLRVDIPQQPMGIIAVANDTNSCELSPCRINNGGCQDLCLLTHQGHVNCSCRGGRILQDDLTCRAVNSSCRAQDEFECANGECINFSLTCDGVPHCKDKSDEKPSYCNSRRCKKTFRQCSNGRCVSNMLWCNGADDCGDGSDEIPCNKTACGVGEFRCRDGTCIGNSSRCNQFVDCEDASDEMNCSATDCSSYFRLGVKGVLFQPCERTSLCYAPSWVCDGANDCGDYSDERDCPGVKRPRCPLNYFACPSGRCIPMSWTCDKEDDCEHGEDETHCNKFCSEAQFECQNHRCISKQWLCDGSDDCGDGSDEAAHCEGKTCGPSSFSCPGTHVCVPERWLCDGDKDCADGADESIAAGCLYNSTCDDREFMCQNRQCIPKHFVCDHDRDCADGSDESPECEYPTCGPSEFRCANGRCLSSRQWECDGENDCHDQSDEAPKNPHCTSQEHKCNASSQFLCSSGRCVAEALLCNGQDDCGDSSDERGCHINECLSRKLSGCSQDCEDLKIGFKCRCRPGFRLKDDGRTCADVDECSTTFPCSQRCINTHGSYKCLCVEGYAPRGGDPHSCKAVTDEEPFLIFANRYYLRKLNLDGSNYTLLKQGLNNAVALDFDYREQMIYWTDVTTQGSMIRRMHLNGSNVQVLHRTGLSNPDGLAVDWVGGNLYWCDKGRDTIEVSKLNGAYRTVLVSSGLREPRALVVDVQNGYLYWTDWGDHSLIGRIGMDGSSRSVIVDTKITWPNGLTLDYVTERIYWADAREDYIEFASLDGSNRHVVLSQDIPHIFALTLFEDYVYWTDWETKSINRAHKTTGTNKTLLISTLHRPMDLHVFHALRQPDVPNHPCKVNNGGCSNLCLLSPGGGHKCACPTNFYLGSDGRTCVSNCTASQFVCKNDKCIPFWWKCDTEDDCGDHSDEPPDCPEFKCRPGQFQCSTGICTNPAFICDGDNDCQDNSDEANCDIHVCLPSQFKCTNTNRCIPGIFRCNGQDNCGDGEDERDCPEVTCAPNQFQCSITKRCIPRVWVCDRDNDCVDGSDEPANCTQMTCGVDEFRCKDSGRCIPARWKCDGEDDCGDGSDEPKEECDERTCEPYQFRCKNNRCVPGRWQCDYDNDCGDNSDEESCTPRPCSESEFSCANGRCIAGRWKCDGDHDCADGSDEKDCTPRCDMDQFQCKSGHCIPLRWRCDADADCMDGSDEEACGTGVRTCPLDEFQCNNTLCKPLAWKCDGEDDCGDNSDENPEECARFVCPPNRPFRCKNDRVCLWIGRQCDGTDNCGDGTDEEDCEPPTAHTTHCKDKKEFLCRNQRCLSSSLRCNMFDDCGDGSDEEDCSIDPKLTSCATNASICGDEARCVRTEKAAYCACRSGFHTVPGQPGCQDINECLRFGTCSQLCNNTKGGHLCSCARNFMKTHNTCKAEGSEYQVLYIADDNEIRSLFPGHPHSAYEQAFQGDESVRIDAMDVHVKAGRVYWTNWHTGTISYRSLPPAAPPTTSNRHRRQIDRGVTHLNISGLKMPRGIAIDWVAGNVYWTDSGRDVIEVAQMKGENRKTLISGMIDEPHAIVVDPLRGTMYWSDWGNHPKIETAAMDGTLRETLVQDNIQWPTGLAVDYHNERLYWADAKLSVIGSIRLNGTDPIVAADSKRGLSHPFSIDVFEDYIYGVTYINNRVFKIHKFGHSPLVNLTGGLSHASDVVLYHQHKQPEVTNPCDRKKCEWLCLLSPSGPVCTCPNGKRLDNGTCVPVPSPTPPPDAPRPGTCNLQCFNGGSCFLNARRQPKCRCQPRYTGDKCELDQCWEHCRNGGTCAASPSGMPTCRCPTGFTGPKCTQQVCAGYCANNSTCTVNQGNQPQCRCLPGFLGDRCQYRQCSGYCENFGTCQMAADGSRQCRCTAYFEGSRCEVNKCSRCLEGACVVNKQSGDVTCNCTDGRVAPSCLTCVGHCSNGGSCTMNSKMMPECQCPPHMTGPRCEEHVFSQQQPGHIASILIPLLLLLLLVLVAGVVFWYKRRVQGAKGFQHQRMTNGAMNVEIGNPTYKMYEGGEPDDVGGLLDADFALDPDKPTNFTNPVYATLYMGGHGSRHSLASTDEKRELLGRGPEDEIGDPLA

decrease in p38 phosphorylation (Western blot, densitometry) in primary human macrophages treated with pd-VWF (10 μg/ml), in the presence of RAP (200 nM): 50%
decrease in p38 signaling (Western blot, densitometry) in primary human macrophages treated with VWF, in the presence of a monoclonal anti-LRP1 antibody: 50%
Substance: Human plasma-derived von Willebrand factor-Factor VIII free (a stretch of the chain, sequence left out) (natural protein)
